According to a collection of fitness landscapes (doi:10.1016/j.celrep.2020.107928):
In all, about 81,000 sequences were measured (“one-hybrid fitness for binding parS DNA”: median about -0.17, highest 2% from about 0.51 on). The list shows a part of the results.

B1: Caulobacter ParB omega fusion; a variant is named by its letters at X, in order, B8GW30 (parent)
chain: MESVVVGEPGMSEGRRGLGRGLSALLGEVDAAPAQAPGEQLGGSREAPIEILQRNPDQPRRTFREEDLEDLSNSIREKGVLQPILVRPSPDTAGEYQIVAGERAWRAAQRAGLKTVPIMVRELDDLAVLEIGIIENVQRADLNVLEEALSYKVLMEKFERTQENIAQTIGKSXSHVANXMRLLXLPDEVQSYLVSGELTAXHARAIAAAADPVALAKQIIEGGLSVRETEALARKAPNLSAGKSKGGRPPRVKDTDTQALESDLSSVLGLDVSIDHRGSTGTLTITYATLEQLDDLCNRLTRGI

Variants of: B1
Assay: one-hybrid fitness for binding parS DNA (scaled: cognate 1, non-cognate 0); higher = stronger binding
Conditions: with parS DNA site
Summary of the method: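 Values were rescaled so that cognate is 1 and non-cognate is 0. Each is a fitness, the log change in a variant's read ratio to wild type from Illumina reads of plasmids before and after selection, with three replicate libraries pooled and variants under 10 reads dropped. Selection of the Caulobacter ParB libraries, four specificity codons randomised, used E. coli USO with a HIS3 reporter, site 19 bp from the promoter, on M9-minus-histidine with 0.1 mM IPTG and 5 mM 3-AT for 48 hours at 37°C.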

one-hybrid fitness for binding parS DNA, 0.655:
RWHT

one-hybrid fitness for binding parS DNA, 0.267:
RTLF

one-hybrid fitness for binding parS DNA, 0.595:
RGCS

one-hybrid fitness for binding parS DNA, 0.216:
RCSK

one-hybrid fitness for binding parS DNA, 0.329:
RANW

one-hybrid fitness for binding parS DNA, ≤ 0.2:
QMKL
WYNG
EAPD
ELQS
EWPT
LLFC
WQIG
DQQG
LPEC
THIC
DNVM
VWEC
HGTM
EAFF
RHHP
GRPD
NVAY
YRKV
PVRV
RMHI
FPMS
LVYV
WSSM
AWIP
YMNC
CWSS
ISHC
SAET
DSMR
QAPG
PFRG
HYYY
SEGF
HNMR
LGYG
QNYN
DVCR
RHMD
TWTD
HKHH
WEQI
TRWL
SDVE
MHHP
HLNK
PLRS
LKMG
TVPT
RCHP
CYYR
AFAK
HWVL
LNSG
SEHC
CQWG
TKHF
PSPH
ERSV
DHDS
NPSG
LAAM
PGNH
CGPS
SYYG
WQRM
QLSF
VLYR
KSFM
FIPE
AKLV
RDQK
NRTE
NVDS
PTEN
GSTF
LENS
TVMR
YRMM
PYWT
FVYG
KLRV
MRQG
NMER
DQYG
PSKL
ITEV
LHRV
NDNI
HYEL
PQQW
NWRR
LREA
FSSD
LCQS
ASHH
QTDI
FEPI
KQFN
WMTV
ARLC
MRVT
RSTL
CLPL
SPER
QWLY
LAKY
LFVN
PGTC
YPDR
GLTR
FFKS
QNVS
ETLP
WVHL
TRCG
SVLR
IWHG
HVNK
THTI
YKHY
QMKN
DHSG
SWPE
SWAS
VRAQ
PYVG
PGRM
AHAK
MYTC
KPLN
ACDC
SAGN
HTGL
YIDF
NTMH
TYLR
PTQT
RDGI
KHAY
HDVA
AQRF
MAQS
SPFR
QSHS
LIMR
QYFS
HQQS
ISPI
